Test results taken from PubChem BioAssay AID1963576 (National Center for Advancing Translational Sciences (NCATS), 2024).
Hit rate of the full screen: of about 46,000 compounds, about 60 (0.1%) were called active. Not shown: some 3% with an inconclusive outcome. Calls come from the whole dose curve; as a rule, active = well fitted inhibition curve with a large enough effect; inconclusive = small, poorly fitted or top-dose-only effect; inactive = no such curve, though single readings can be large or run the other way. This is one part of the list.

Assay: Primary qHTS assay for Inhibitors of ovarian cancer metastasis using an organotypic tumor microenvironment (TME) model.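 For activity change, negative = inhibition: plate controls were DMSO wells for no effect and tomatine positive control wells for full effect.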 Note: nearly all actives have a fitted effect of over 65% in size.
Conditions: SKOV3ip1-GFP adhesion/invasion on 3D omental model, fluorescence; series mostly up to 45.8 µM; activity change, negative = inhibition: at the top concentration
Method in brief: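 Primary human omental fibroblast/mesothelial 3D culture pre-formed 48 h. SKOV3ip1-GFP cells added with compounds (0.36-46 umol/L), incubated 2 h RT/16 h 37 C, fixed; GFP cells quantified at 488/509 nm.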

Activity change, negative = inhibition, inactive:
CCCNC(=O)c1ccc2c(c1)N(Cc1cccc(C)c1)C(=O)c1ccccc1S2 -7.51%, Cc1ccc(S(=O)(=O)c2nnn3c2nc(NCc2ccc(F)cc2)c2sccc23)cc1 2.69%, CCc1ccc(NC(=O)CC2C(=O)N(c3cccc(OC)c3)C(=O)N2Cc2ccc(F)cc2)cc1 (stereo unspecified) 17.6%, Cc1nc2ccn(Cc3ccccc3)c(=O)c2cc1C(=O)N1CCN(c2ccc(F)cc2)CC1 64.8%, COc1ccccc1NC(=O)Cn1c(SCC(=O)Nc2ccc(F)cc2)nc2ccccc21 17.3%, NCCS(=O)(=O)O 1.45%, COc1cccc(CCNC(=O)c2c(O)nc3c(C)cccn3c2=O)c1 3.57%, CC(Sc1nnc2ccc3ccccc3n12)C(=O)Nc1ccc(Cl)cc1 (stereo unspecified) 5.55%, CCCc1cc(=O)[nH]c(Nc2cc(C)ccc2OC)n1 3.29%, Cc1cc(NC(=O)n2ncc3c(C)cccc32)ccc1Br 1.23%, COCCc1nn2c(=O)cc(COC(=O)C(c3ccccc3)c3ccccc3)nc2s1 8.96%, CCOC(=O)c1cnc2cc(-c3ccc(OCC)cc3)nn2c1-c1ccccc1 6.97%, COc1ccc(NC(=O)CSc2nccn2Cc2ccc3c(c2)OCO3)cc1 2.95%, O=C1CC(c2ccccc2)Sc2ccccc2N1Cc1ccc(F)cc1 (stereo unspecified) -3.06%, COc1ccc(C2=Nc3ccccc3NC(c3cccs3)=N2)cc1 -2.77%, CCOc1ccccc1NC(=O)c1c(NC(=O)COc2ccccc2)sc2c1CCCC2 10.5%, Cc1cc(C)c(NC(=O)CSc2ccc(-c3ccccn3)nn2)c(C)c1 0.725%, CN(C)CCNC(=O)CN1C(=O)COc2ccc(S(=O)(=O)N3CCCC3)cc21 46.5%, Cc1ccc(-n2c3c(cc(C(=O)Nc4ccccc4C(N)=O)c2=O)C(=O)CC(C)(C)C3)cc1 0.922%, CCCOc1ccc(NC(=O)CC2C(=O)N(c3ccccc3)C(=O)N2Cc2ccco2)cc1 (stereo unspecified) 2.15%, CCNS(=O)(=O)c1ccc(NC(=O)CSc2nc(-c3ccco3)cc(C(F)(F)F)n2)cc1 -1.52%, COc1cccc(NC(=O)CCC(=O)N2Cc3ccccc3Oc3ncccc32)c1 0.041%, Cc1ccc(-c2cc(C(=O)Nc3ccc(SC(F)F)cc3)no2)cc1F -10.7%, CCCOc1ccc(CNC(=O)CCCn2ncn3c(cc4sc(CC)cc43)c2=O)cc1 2.21%, CC(C)OC(=O)c1cccc(NC(=O)Cn2nnc3sc4c(c3c2=O)CCCC4)c1 4.15%, Cc1ccc(-n2cc(-c3ccccc3)c3c(N4CCCCC4)ncnc32)cc1 0.343%, Cc1cccc(Nc2nnc(-c3ccc(C)c(S(=O)(=O)N4CCCCC4)c3)c3ccccc23)c1 -9.36%, CCN(CC)c1ccc(NC(=O)c2cccn2-c2nnc(N3CCCCC3)s2)c(C)c1 21.9%, Cc1ccc(NC(=O)C(Cc2ccccc2)NS(=O)(=O)c2ccc3c(c2)c(=O)n(C)c(=O)n3C)c(C)c1 (stereo unspecified) 28.5%, Cc1c(Cl)cccc1-n1ncc(C(=O)N2CCN(c3ncccn3)CC2)c1C1CCN(C(=O)OC(C)(C)C)CC1 12%, CCc1cccc(NS(=O)(=O)c2c(C)[nH]c(=O)[nH]c2=O)c1 -4.83%, COc1ccc(CCNC(=O)CCc2c(C)nc3c4c(C)cc(C)nc4nn3c2C)cc1OC 3.55%, CC(=O)c1c(C)oc2ccc(N(C(=O)Oc3ccccc3)S(=O)(=O)c3ccc(Cl)cc3)cc12 10.7%, COc1cccc2c1cc1c(=O)n(CC(=O)N3CCN(c4cccc(C)c4C)CC3)nc(C)n12 10.5%, CCOc1ccccc1Nc1nc2ccccc2c2nncn12 7.72%, Cc1ccc(S(=O)(=O)Nc2cccc(-c3ccc(N4CCC(C)CC4)nn3)c2)s1 0.939%, COc1ccc(OCC(=O)Nc2ccc(-c3nc4cc(C)cc(C)c4o3)cc2)cc1 -9.01%, Fc1ccc(N2CCN(c3nc4ccccc4c4nc(-c5ccccc5)nn34)CC2)cc1 5.4%, COc1ccc2c(c1)cc(CNc1ccc(OC)c(OC)c1)c(=O)n2CC(=O)Nc1ccccc1C 7.13%, CC1CCN(S(=O)(=O)c2ccc3c(c2)CCN3C(=O)Nc2ccccc2Br)CC1 0.244%, COc1ccc2c(c1)c1c(c(=O)n(CCc3ccccc3)c(=O)n1Cc1cccc(Cl)c1)n2C 34.6%, Cc1ccc(NC(=O)C2CCCN(S(=O)(=O)c3ccc4[nH]c(=O)ccc4c3)C2)cc1Cl (stereo unspecified) -0.84%, COc1ccc(CC(=O)Nc2nc3c(s2)CC(C)CC3)cc1 (stereo unspecified) 0.458%, COc1cc(NC(=O)c2ccc(C)c(Cl)c2)ccc1NC(=O)c1cc2ccccc2o1 0.526%, CCCn1cc(S(=O)(=O)c2ccc(C)cc2)c(=O)c2cc(F)c(N3CCCC3)cc21 -4.75%, CCOc1ccccc1Nc1ncnc2c1cnn2-c1ccc(C)cc1 4.61%, CC(=O)Nc1cccc(NC(=O)c2cc3c(=O)n4cccc(C)c4nc3n2C)c1 -20.1%, O=C(NCc1cccc(Cl)c1)c1c2c(nc3ccccc13)C(=O)N(C1CCCCC1)C2 -4.41%, COc1nc(C)nc(Cl)c1NC1=NCCN1 -10.5%, Cc1ccc(CNC(=O)CSc2ncc3c(n2)-c2cc(Cl)ccc2N(C)S3(=O)=O)cc1 12.6%, COc1cccc(Cn2cc(C(=O)c3ccccc3)c(=O)c3cc4c(cc32)OCO4)c1 -7.86%

outcome, inactive:
CCc1ccc(NC(=O)CC2C(=O)N(c3cccc(C)c3)C(=O)N2Cc2ccc(F)cc2)cc1 (stereo unspecified), COc1ccc(C)cc1NC(=O)C(=O)NCC(c1cccnc1)N1CCc2ccccc21 (stereo unspecified), COc1ccccc1CNC(=O)c1c[nH]c2ccc(S(=O)(=O)Nc3cc(C)cc(C)c3)cc2c1=O, Cc1ccc(CNC(=O)CSc2nc3ccsc3c(=O)n2Cc2ccccc2F)cc1, CCOc1ccc(CNC(=O)c2ccc3oc(=O)n(Cc4ccccc4)c3c2)cc1, Cc1ccc(CNC(=O)C2CCN(S(=O)(=O)N3CCCCC3)CC2)cc1, Cc1ccc(Cn2nnc3c(=O)[nH]c(C4CCN(C(=O)Cc5ccccc5F)CC4)nc32)cc1, CC1CN(C(=O)N2CCC(C(=O)NCCCc3ccccc3)CC2)c2cc(Cl)ccc2O1 (stereo unspecified), Cc1c(C(=O)NCc2ccc(Cl)cc2)oc2ccc3c(c12)C(=O)CC(C)(C)O3, CCCCOc1ccc(CNC(=O)c2cccc(NC(=O)N3CCSc4ncccc43)c2)cc1
